# PubChem BioAssay (NCATS)
# Inconclusive means that the source gave no clear call. Such entries were picked first, then a sample of the others. For some of these results: A potency beside an inconclusive call is a rough fit, not a confirmed value. The source made the active and inactive calls. Unless noted, calls follow the shape of the dose curve; as a rule, active = well fitted curve in either direction with a large enough effect (not every such curve was filed as active); inconclusive = small, poorly fitted or top-dose-only effect, or another doubt; inactive = flat fitted curve, though single readings scatter.
# How the values were obtained:
# [1] = AP1 Signaling Pathway (AID 357); details: ME-180 AP-1-bla reporter, EGF-induced, beta-lactamase ratio, 5 h; also: top concentration of the series differs between compounds; % is scaled to controls: 0 for no effect and ±100 for the full control effect
# Method in brief: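 AP-1-bla ME-180 cells with beta-lactamase reporter under AP-1 response element, stimulated with EC50 EGF; compounds titrated, 5 hours at 37 degrees Celsius. CCF4 read at 460/530 nm ratio; positive and negative modulators judged by AC50.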
# [2] = biological target: Cytochrome P450 1A2 (Homo sapiens) (UniProt P05177); assay: p450-cyp1a2 (AID 410; calls by dose curve; also: potency is read from the fitted curve at half-maximal effect;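 as to activity change, negative = inhibition: top concentration of the series differs between compounds; -100% = full effect of reference inhibitor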)
# Method in brief: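 Luminescent demethylation readout: Luciferin-ME (100uM, equal to Km) turned over by 20nM CYP1A2 for 60 min at room temperature after NADPH regeneration addition, following 10 min compound preincubation. Normalization used 57 uM furafylline as full inhibition.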
# [3] = NFAT Signaling Pathway (AID 444); details: Jurkat NFAT-bla M1, carbachol, beta-lactamase ratio, 5 h; at 17.2 µM (top of the series) unless noted;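 also: carbachol stimulus at about its EC50 of 1 µM final; % is scaled to controls: 0 for no effect and ±100 for the full control effect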
# Method in brief: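 Read-out: CCF4 FRET ratio (460 nm/530 nm) after 1 h RT dye loading, used for %activity and AC50 from titration series. Cells: Jurkat NFAT-β-lactamase/M1 line, treated with compound plus 1 uM carbachol for 5 h, 37 °C.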
# [4] = Stat Signaling Pathway (AID 446); details: ME-180 SIE beta-lactamase reporter, IL-6 stimulated, 5 h; at 7.69 µM (top of the series) unless noted;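 also: ME-180 cervical cancer cells given 40 pM IL-6 alongside compound; SIE-controlled beta-lactamase reporter measured as 460/530 nm FRET emission ratio; top concentration of the series differs between compounds; % is scaled to controls: 0 for no effect and ±100 for the full control effect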
# Method in brief: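 Emission at 460 and 530 nm (excitation 405 nm) reports SIE-controlled beta-lactamase in ME-180 cells. Cells received compound with 40 pM IL-6 for 5 hrs at 37 C; data scaled between 300 pM IL-6 and 125 nM JAK-inhibitor controls.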
# [5] = qHTS Assay for Identification of Small Molecule Agonists for Hypoxia Response Element Signaling Pathway (AID 914; active = well fitted activation curve with a large enough effect in the signal ratio, with a control signal flat, not every such curve was filed as active; inconclusive = small, poorly fitted or top-dose-only effect, or effect the other way, or a change in a side signal; the % refers to the signal ratio; also: potency is read from the fitted curve at half-maximal effect); details: ME-180 HRE-bla reporter, beta-lactamase ratio, CoCl2, 17 h; activation: hits give high values
# Method in brief: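 ME-180 cells carrying an HRE-driven beta-lactamase reporter were treated with compounds in a titration series plus an EC50 level of CoCl2 for 17 h at 37 degrees Celsius; CCF4 readout as the 460nm/530nm ratio gave AC50 values.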
# [6] = biological target: Glucocorticoid receptor (Homo sapiens) (UniProt P04150); assay: GR-EFC Redistribution (AID 451; calls by dose curve; also: potency is read from the fitted curve at half-maximal effect); details: CHO-K1 GR-EFC translocation, beta-gal luminescence, 2 h
# Method in brief: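 Translocation of GR-ED fusion to nuclear EA restores b-gal, read by luminescence after 1 h room-temperature detection. Engineered CHO-K1 biosensor cells, 1,000/well, exposed 2 h at 37 C to titrations up to 46 uM final.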
# [7] = biological target: 3',5'-cyclic-AMP phosphodiesterase 4B (Homo sapiens) (UniProt Q07343); assay: qHTS Assay for Inhibitors of PDE-IV (AID 607; active = well fitted activation curve with a large enough effect in the main read-out, with a control signal flat, not every such curve was filed as active; inconclusive = small, poorly fitted or top-dose-only effect, or effect the other way, or a change in a side signal; also: potency is read from the fitted curve at half-maximal effect); details: HEK293 ACTOne CNG channel cells, membrane potential fluorescence; activation (PDE inhibition): at 22.9 µM (top of the series)
# Method in brief: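 The readout is membrane depolarisation from a cAMP-sensing CNG channel, detected with a potential dye at ex 535/em 590. Cells were HEK293-derived (endogenous PDE-IV) at 1000 cells/well, titrated up to 22.9 uM final.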
# [8] = biological target: Cytochrome P450 2C9 (Homo sapiens) (UniProt P11712); assay: qHTS Assay for Inhibitors and Substrates of Cytochrome P450 2C9 (AID 883; active = well fitted curve in the direction sought with a large enough effect; inconclusive = small, poorly fitted or top-dose-only effect, or another doubt; inactive = no such curve, though single readings can be large; an effect the other way counts as inactive or inconclusive; also: % is scaled to controls: 0 for no effect and ±100 for the full control effect; nearly all actives have a fitted effect of over 60% in size); details: recombinant CYP2C9, luciferin-H luminescence, 60 min; activity change, negative = inhibition: at 57.1 µM (top of the series)
# Method in brief: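 Turnover of Luciferin-H (100uM, KM) by 10nM human CYP2C9 was measured over 60 min at 37C with NADPH regeneration; inhibitors and some substrates reduce luminescence. Data normalized to sulphaphenazole 57uM.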
# [9] = qHTS Assay for Identification of Small Molecule Antagonists for Thrombopoietin (TPO) Signaling Pathway (AID 918; active = well fitted curve in the direction sought with a large enough effect; inconclusive = small, poorly fitted or top-dose-only effect, or another doubt; inactive = no such curve, though single readings can be large; an effect the other way counts as inactive or inconclusive; also: nearly all actives have a fitted effect of over 60% in size); details: TPO-dependent cell signaling reporter, antagonist mode; activity change, negative = inhibition: at 38.5 µM (top of the series)
# Method in brief: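 Inhibition read as reduced luciferase luminescence after 24 h at 37 C in IL-3-deprived Ba/F3 cells carrying human TPO receptor and GPIIb-promoter reporter, stimulated with 26 pM TPO (final, its EC50) alongside compound.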
# [10] = biological target: Muscarinic acetylcholine receptor M1 (Rattus norvegicus) (UniProt P08482); assay: qHTS Assay for Antagonists of Acetylcholine Muscarinic M1 Receptor: Kinetic Measurement of Intracellular Calcium Response (AID 943; active = well fitted curve in the direction sought with a large enough effect; inconclusive = small, poorly fitted or top-dose-only effect, or another doubt; inactive = no such curve, though single readings can be large; an effect the other way counts as inactive or inconclusive;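 also: Fluo-4 calcium signal as peak divided by basal fluorescence over 4 min; nearly all actives have a fitted effect of over 75% in size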)
# Method in brief: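 Antagonism measured as reduction of carbachol-evoked (EC80, 100 nM final) calcium flux in rat M1-CHO cells after 10 min compound exposure. Fluo-4 signal read kinetically; ratio of maximal to basal fluorescence.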
# [11] = at 17.2 µM (top of the series) unless noted
# Tags tell the direction and shape of the fitted curve or compound fluorescence and quenching.
# UniProt P05177, sequence (P05177 whole entry, looked up): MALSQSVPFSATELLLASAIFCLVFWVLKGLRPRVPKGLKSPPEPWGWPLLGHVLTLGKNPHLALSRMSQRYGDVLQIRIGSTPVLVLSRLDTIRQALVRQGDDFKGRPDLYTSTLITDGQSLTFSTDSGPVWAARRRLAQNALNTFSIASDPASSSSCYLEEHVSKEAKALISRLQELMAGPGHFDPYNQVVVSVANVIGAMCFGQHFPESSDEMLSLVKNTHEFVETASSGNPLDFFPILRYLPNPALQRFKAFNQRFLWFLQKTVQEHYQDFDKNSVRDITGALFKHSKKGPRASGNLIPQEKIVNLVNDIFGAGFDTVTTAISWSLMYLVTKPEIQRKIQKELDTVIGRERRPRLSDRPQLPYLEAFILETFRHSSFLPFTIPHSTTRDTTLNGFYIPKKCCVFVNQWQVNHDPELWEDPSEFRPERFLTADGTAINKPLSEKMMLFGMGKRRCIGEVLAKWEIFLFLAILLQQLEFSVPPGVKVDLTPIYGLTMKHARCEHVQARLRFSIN
# UniProt Q07343, sequence (Q07343 whole entry, looked up): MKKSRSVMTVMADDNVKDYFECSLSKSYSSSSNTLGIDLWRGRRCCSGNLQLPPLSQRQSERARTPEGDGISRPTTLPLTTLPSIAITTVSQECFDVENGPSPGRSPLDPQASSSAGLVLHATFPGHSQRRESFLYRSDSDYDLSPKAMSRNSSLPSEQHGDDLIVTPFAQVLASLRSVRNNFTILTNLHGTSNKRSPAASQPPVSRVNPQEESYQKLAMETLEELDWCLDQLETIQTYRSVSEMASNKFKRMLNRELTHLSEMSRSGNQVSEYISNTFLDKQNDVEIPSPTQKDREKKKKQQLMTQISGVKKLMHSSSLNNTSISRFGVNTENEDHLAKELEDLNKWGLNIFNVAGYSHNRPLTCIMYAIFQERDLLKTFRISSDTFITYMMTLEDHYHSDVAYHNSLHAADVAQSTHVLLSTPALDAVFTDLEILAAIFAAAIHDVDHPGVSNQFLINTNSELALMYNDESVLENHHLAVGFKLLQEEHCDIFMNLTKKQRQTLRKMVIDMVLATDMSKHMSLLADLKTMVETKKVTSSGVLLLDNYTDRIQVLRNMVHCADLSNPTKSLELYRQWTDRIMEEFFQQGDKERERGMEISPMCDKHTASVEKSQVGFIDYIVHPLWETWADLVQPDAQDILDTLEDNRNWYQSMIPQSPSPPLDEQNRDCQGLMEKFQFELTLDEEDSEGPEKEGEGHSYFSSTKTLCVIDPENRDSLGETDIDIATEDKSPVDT
# UniProt P11712, sequence (P11712 whole entry, looked up): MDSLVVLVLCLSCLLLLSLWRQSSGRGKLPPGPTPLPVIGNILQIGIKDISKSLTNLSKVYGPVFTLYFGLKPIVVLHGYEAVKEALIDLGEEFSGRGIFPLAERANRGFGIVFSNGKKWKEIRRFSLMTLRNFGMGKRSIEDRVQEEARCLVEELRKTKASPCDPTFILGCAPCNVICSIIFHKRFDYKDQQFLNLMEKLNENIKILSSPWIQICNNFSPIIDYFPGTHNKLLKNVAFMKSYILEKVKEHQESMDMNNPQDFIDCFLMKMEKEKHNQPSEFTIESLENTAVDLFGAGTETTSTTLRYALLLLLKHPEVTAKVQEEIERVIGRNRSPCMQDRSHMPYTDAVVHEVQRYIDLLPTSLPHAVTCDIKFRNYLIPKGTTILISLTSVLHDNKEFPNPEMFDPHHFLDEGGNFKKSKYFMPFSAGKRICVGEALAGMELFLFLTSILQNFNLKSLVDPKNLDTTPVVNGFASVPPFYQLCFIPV
# UniProt P08482, sequence (P08482 whole entry, looked up): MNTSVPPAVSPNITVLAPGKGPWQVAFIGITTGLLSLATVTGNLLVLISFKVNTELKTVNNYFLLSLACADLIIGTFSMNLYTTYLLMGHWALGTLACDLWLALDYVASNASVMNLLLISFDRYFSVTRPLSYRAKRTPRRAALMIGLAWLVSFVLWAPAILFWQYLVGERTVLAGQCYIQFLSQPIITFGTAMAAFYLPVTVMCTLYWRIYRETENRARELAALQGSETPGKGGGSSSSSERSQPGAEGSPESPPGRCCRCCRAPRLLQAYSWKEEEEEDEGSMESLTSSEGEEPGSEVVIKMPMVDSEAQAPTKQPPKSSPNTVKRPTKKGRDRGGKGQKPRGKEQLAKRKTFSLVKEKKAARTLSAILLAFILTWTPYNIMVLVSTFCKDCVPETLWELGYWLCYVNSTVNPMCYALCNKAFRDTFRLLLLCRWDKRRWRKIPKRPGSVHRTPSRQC
# UniProt P04150, sequence (P04150 whole entry, looked up, the tested form may be a part): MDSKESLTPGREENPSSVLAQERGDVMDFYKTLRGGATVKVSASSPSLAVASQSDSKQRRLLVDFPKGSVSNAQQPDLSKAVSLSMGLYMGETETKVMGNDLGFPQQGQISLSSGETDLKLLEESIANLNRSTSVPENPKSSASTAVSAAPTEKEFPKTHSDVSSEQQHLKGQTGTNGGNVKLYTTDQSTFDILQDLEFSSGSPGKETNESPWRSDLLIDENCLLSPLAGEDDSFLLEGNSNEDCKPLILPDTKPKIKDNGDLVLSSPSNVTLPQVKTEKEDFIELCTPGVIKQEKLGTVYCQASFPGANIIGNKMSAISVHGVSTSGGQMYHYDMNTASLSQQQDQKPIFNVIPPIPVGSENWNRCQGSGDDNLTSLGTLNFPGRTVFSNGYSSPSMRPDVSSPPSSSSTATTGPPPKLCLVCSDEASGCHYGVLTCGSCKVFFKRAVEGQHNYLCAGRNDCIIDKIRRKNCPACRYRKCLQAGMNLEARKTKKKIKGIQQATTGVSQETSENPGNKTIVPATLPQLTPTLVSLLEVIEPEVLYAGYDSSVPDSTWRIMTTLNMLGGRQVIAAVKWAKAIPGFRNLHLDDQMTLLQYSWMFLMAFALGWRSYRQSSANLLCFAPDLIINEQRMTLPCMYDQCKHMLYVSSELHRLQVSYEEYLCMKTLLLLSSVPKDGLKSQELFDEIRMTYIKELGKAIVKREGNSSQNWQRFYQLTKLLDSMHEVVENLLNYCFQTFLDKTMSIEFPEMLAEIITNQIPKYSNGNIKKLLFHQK
smiles,measurement,setting,value
O=c1c(-c2cc(F)cc(F)c2)nc2cncnc2n1Cc1ccc(F)cc1,"activity change, negative = inhibition",[1]; [11],inactive: -2.14% [at 7.69 µM]
Cc1nccn1C[C@@H]1CCc2c(c3ccccc3n2C)C1=O,"activity change, negative = inhibition",[1]; [11],inactive: -0.637%
CC(C)NC(=O)N1CCC2(CC1)CCN(S(C)(=O)=O)CC2,"activity change, negative = inhibition",[1]; [11],inactive: -12.4% [at 7.69 µM]
CCCCOc1ccc(C(=O)NCC(=O)NCC(=O)OCC)cc1,"activity change, negative = inhibition",[1]; [11],inactive: -0.159%
COC(=O)CSCC(=O)Nc1cc2c(cc1C(C)=O)OCO2,"activity change, negative = inhibition",[1]; [11],inactive: -1.75%
O=C1c2ccccc2S(=O)(=O)N1CC(O)COc1ccc(Cl)cc1 (stereo not given),"activity change, negative = inhibition",[1]; [11],inactive: -4.25%
CCCc1cc(-n2ccnc2C)n2c(nc3ccccc32)c1C#N,"activity change, negative = inhibition",[1]; [11],inconclusive: -6.11% [inhibitor]
COC(=O)c1ccccc1NC(=O)CSc1nnc(-c2ccncc2)o1,"activity change, negative = inhibition",[1]; [11],inconclusive: 10.7% [activator]
Cc1cc(=O)oc(C)c1C(=O)Nc1ccc2nsnc2c1,"activity change, negative = inhibition",[1]; [11],inactive: 6.72%
NC([N-]/N=C/c1ccccn1)=[S]=[Fe].O=S(=O)(O)O,"activity change, negative = inhibition",[1]; [11],inactive: 8.56% [at 7.69 µM]
same,"activity change, negative = inhibition",[2],inactive: 15.8% [at 2.29 µM]
Cn1c(=O)c(-c2cccs2)nc2cnc(N3CCNCC3)nc21,"activity change, negative = inhibition",[1]; [11],inconclusive: 50.2% [activator] [at 7.69 µM]
same,Potency,[2],active: 10 µM
same,"activity change, negative = inhibition",[3],inconclusive: 79.4% [activator] [at 7.69 µM]
same,"activity, negative = inhibition",[4],inconclusive: 100% [activator]
same,Potency,[5],active: 3.16 µM
C=C[C@H](N)CCC(=O)O,"activity change, negative = inhibition",[1]; at 17.2 µM (top of the series),inactive: -1.55%
same,"activity change, negative = inhibition",[1]; at 38 µM (top of the series),inactive: 6.29%
same,Potency,[6],inconclusive: 43.6 µM [single point]
same,Potency,[7],"inconclusive: 10 µM [inhibitor, partial curve, poor fit]"
same,Potency,[8],inactive
same,"activity change, negative = inhibition",[9],inconclusive: -18.4% [phenotype inactive]
same,Potency,[10],inactive
c1ccc(CCN2CCN=C2Cc2ccccc2)cc1,"activity change, negative = inhibition",[1]; [11],inactive: 6.53% [at 7.69 µM]
same,Potency,[2],inconclusive: 7.94 µM [decreasing]
